{
  "source": "ChEMBL document CHEMBL4888484",
  "about": "“Replenishing the malaria drug discovery pipeline: Screening and hit evaluation of the MMV Hit Generation Library 1 (HGL1) against asexual blood stage Plasmodium falciparum ,using a nano luciferase reporter read-out” (2022)",
  "note": "Out of some 150,000 compounds screened, about 540 (0.36%) showed an effect of 50% or more. Some of the results follow.",
  "data": [
    {"system": "Plasmodium falciparum", "assay": "Primary screen in NF54 nanoGlo assay, in single point, at 2uM, 72h; a lower Z score goes with more inhibition", "assay_type": "functional, Erythrocyte", "conditions": "timepoint 72 hour", "units": {"% Inhibition": "%"}, "values": [
      {"smiles": "CN(C)CCN(CC(=O)OC(C)(C)C)C(=O)c1ccc(-n2ccc(C(F)(F)F)n2)cc1", "% Inhibition": -5, "Z score": 0.48},
      {"smiles": "CC[C@]1(O)CCC12CCN(C(=O)CCc1ccc(OC)cc1)CC2", "% Inhibition": -10, "Z score": 1.25},
      {"smiles": "COc1cccc(-c2noc(N3CCN(C(=O)c4ccco4)CC3)n2)c1", "% Inhibition": -22, "Z score": 1.97},
      {"smiles": "Cc1ccc2nc(-c3ccc(NC(=O)c4ccc(F)cc4)cc3)ccc2c1", "% Inhibition": -7, "Z score": 1.01},
      {"smiles": "Nc1nccnc1C(=O)Nc1cccc(NC(=O)c2ccccc2)c1", "% Inhibition": -11, "Z score": 2},
      {"smiles": "C#CCNC(=O)[C@@H](NC(=O)c1ccnn1C(C)C)[C@@H](C)O", "% Inhibition": -3, "Z score": 0.57},
      {"smiles": "CC(C)N(CC(N)=O)Cc1ccccc1C(F)(F)F", "% Inhibition": -8, "Z score": 1.14},
      {"smiles": "CCOC(=O)CCC(=O)NCCn1ccc(-c2cnccn2)n1", "% Inhibition": 20, "Z score": -2.52},
      {"smiles": "O=C(NCc1noc(Cc2ccccc2)n1)c1coc(-c2ccccc2)n1", "% Inhibition": 4, "Z score": -0.64},
      {"smiles": "CN1CC[C@H](C(=O)NC2CCN(Cc3cccs3)CC2)CC1=O", "% Inhibition": -9, "Z score": 1.77},
      {"smiles": "Cc1ccc(C)c(S(=O)(=O)N2CCC(O)(c3nccn3C)CC2)c1", "% Inhibition": -7, "Z score": 0.78},
      {"smiles": "CCc1nc2cc(N3CCCC(C(=O)NCC4CCCO4)C3)cnc2nc1CC", "note": "(centres undefined)", "% Inhibition": -2, "Z score": 0.44},
      {"smiles": "CCc1nnc(CN(C(=O)CCc2nncn2C)C(C)C)o1", "% Inhibition": -10, "Z score": 1.47},
      {"smiles": "O=C1NCCN(Cc2cnn(CC(F)F)c2)c2ccccc21", "% Inhibition": -16, "Z score": 2.87},
      {"smiles": "COC(OC)C(=O)N1CCN(CCO[C@@H]2CCCCO2)CC1", "% Inhibition": -5, "Z score": 0.91},
      {"smiles": "O=C(NCCc1ccc(O)cc1)C(=O)Nc1cccc2nonc12", "% Inhibition": -1, "Z score": 0.13},
      {"smiles": "CCO[C@H]1COC[C@@H]1NC(=O)c1cc2cc(C)ccn2n1", "% Inhibition": -12, "Z score": 1.31},
      {"smiles": "CC(=Cc1cncs1)c1cnccn1", "% Inhibition": -7, "Z score": 1.42},
      {"smiles": "Cc1cc(NC(=O)Cn2c(=O)n(CCc3ccccc3)c(=O)c3ccccc32)no1", "% Inhibition": 35, "Z score": -4.02},
      {"smiles": "OC(CN1CCCC(c2nc3ccccc3s2)C1)c1ccccc1", "note": "(centres undefined)", "% Inhibition": -13, "Z score": 1.44},
      {"smiles": "COc1ccc(Nc2c3c(nc4c(-c5ccccc5)c(C)nn24)CCC3)cc1", "% Inhibition": 11, "Z score": -1.54},
      {"smiles": "Cc1ccc(F)cc1S(=O)(=O)Oc1cccc(-n2cncn2)c1", "% Inhibition": -23, "Z score": 2.08},
      {"smiles": "COc1ccc(N(C(=O)c2ccc(C)cc2)C(C)(C)C(=O)Nc2c(C)cccc2C)cc1", "% Inhibition": -5, "Z score": 0.68},
      {"smiles": "CC(c1ccccc1)N1CC(C(=O)N2CCN(C(=O)c3ccccc3Cl)CC2)CC1=O", "note": "(centres undefined)", "% Inhibition": 0, "Z score": -0.05},
      {"smiles": "CCc1ccc(CNC(=O)C2CCN(c3ncnc4c3oc3ccccc34)CC2)cc1", "% Inhibition": -9, "Z score": 1.58},
      {"smiles": "CCC[C@]1(O)CCC12CCN(C(=O)c1ccn(CC)n1)CC2", "% Inhibition": -3, "Z score": 0.32},
      {"smiles": "Cc1cc(C)n2cc(CN3CCCC[C@@H]3Cn3cncn3)nc2n1", "% Inhibition": 2, "Z score": -0.2},
      {"smiles": "C=CCCC(=O)N1CCC(OC2CCC(C)CC2)CC1", "note": "(centres undefined)", "% Inhibition": -11, "Z score": 1.73},
      {"smiles": "Cc1ccc(OCCN2CCN(C)[C@]3(CCC(=O)N(C)CC3)C2)c(Cl)c1", "% Inhibition": -1, "Z score": 0.11},
      {"smiles": "COCCCN1C(=O)C[C@](CC(=O)N(C)CCn2nc(C)cc2C)(c2ccccc2OC)C1=O", "% Inhibition": -4, "Z score": 0.87},
      {"smiles": "CC(C)c1cccc(OC(C(=O)N2C3CCC2CC(O)C3)c2ccccc2)c1", "note": "(centres undefined)", "% Inhibition": -2, "Z score": 0.26},
      {"smiles": "CC(=O)N1c2cc(S(=O)(=O)Nc3ccc(Br)cc3F)c(Br)cc2C[C@@H]1C", "% Inhibition": -1, "Z score": 0.05},
      {"smiles": "CCCCCc1nnc(NC(=O)[C@@H](c2cccnc2)N(C)C)s1", "% Inhibition": 1, "Z score": -0.14},
      {"smiles": "CCN(Cc1nc(C)no1)C(=O)c1cc(CC(C)C)no1", "% Inhibition": -10, "Z score": 1.94},
      {"smiles": "CC(C)(C)OC(=O)N1CCN(Cc2ccc(-n3cccn3)cc2)CC1", "% Inhibition": -1, "Z score": 0.23},
      {"smiles": "Cc1nn(C(C)C)c(C)c1Nc1ccc2nnnn2n1", "% Inhibition": 3, "Z score": -0.47},
      {"smiles": "Cc1cc(C)n2ncc(CN3CCC(c4ncon4)CC3)c2n1", "% Inhibition": -3, "Z score": 0.39},
      {"smiles": "C[C@H]1OCCN(Cc2c(Br)cnn2C)[C@@H]1C(N)=O", "% Inhibition": -7, "Z score": 1.4},
      {"smiles": "c1nc(N2CCCC2)ncc1-c1nc([C@H]2CCOC2)no1", "% Inhibition": -7, "Z score": 1.28},
      {"smiles": "Cc1cc(C)c(S(=O)(=O)N2CCC[C@H]2c2nncn2C)s1", "% Inhibition": 2, "Z score": -0.24},
      {"smiles": "CN1CCO[C@H](C(=O)Nc2cc(S(=O)(=O)N3CCCC3)ccc2O)C1", "% Inhibition": -2, "Z score": 0.24},
      {"smiles": "CC(C)c1nc(Nc2ccc(OCCO)cc2)nc(N(C)C)n1", "% Inhibition": -7, "Z score": 0.79}
    ]}
  ]
}
